# Paper PMC4336329 (PLoS ONE, 2015)
# Hit rate of the full screen: of about 310,000 compounds, about 2,200 (0.71%) showed an effect of 50% or more. Effects have a minus sign here. The list shows a part of the results.
# Target: human ether-à-go-go-related gene (hERG) potassium channel (human, UniProt Q12809)
# Test: primary screen, population patch clamp on CHO cells stably expressing hERG
# human ether-à-go-go-related gene (hERG) potassium channel, sequence (Q12809 whole entry, looked up): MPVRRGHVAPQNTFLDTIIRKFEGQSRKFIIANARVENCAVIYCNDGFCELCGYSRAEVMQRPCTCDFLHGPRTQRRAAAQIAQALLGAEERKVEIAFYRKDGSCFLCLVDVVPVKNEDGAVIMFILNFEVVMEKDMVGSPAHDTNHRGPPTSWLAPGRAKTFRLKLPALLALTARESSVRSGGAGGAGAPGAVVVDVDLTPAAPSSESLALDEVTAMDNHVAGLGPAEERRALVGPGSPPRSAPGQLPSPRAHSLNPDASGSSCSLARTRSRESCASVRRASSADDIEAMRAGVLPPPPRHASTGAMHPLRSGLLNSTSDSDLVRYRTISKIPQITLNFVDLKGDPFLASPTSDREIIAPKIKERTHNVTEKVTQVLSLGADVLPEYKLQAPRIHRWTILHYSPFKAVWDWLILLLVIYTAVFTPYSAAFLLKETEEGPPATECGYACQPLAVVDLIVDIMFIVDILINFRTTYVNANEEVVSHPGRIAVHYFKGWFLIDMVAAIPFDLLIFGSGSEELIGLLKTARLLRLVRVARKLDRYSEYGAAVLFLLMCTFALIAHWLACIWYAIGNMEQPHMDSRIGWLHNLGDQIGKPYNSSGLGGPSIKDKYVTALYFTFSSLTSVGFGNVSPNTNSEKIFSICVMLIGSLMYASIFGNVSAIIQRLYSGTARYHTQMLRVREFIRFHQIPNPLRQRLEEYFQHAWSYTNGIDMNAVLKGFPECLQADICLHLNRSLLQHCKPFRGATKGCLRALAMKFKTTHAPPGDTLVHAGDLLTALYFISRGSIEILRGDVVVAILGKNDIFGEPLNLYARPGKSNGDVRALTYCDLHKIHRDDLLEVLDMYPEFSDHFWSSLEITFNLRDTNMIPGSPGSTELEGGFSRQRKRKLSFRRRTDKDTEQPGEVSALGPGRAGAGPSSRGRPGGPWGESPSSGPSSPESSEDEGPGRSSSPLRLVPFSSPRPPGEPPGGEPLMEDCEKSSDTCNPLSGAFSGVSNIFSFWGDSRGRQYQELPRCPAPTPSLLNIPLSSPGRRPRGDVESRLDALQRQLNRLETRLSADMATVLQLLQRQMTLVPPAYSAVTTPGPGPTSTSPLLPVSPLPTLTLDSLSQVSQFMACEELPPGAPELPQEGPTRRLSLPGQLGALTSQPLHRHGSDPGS
row,SMILES,"hERG current change (%, negative = inhibition) at 1uM [%]"
1,O=C(COC(=O)C1=COCCO1)Nc1ccccc1OC(F)F,9.37
2,C#C[C@@]1(O)CCC2C3CCC4=C/C(=N/OCC(=O)NC(C(=O)O)C(C)O)CC[C@]4(C)C3CC[C@@]21C (some centres unmarked),5.8
3,CC(Oc1ccc(Cl)cc1)C(=O)Nc1cccc(S(=O)(=O)N2CCOCC2)c1 (centres unmarked),3.87
4,CCN(CC)S(=O)(=O)c1cc(C(=O)OCC(=O)c2ccc3c(c2)NC(=O)CO3)ccc1F,6.35
5,CC(Oc1ccccc1)C(=O)N1CCN=C1SCc1ccccc1 (centres unmarked),1.83
6,O=C(c1ccc(Cl)cc1)C1CCN(C(=O)N2CCOCC2)CC1,1.22
7,CCOC(=O)c1ccccc1NS(=O)(=O)c1ccc(C)cc1,14.3
8,CCCCOC(=O)C(C)c1c(C)[nH]c(=S)[nH]c1=O (centres unmarked),16.7
9,Cc1cccc(NC(=S)NCC(C)CSc2ccc(Cl)cc2)c1 (centres unmarked),23.9
10,Cc1cccc(NC(=O)NCCN2CCN(c3ccccc3)CC2)c1C,9.29
11,CCn1c(COc2ccc(C)cc2)nc2ccccc21,4.9
12,CC(C)(C)C(=O)O/N=C(\N)c1ccc(Oc2cc(Cl)cc(Cl)c2)c([N+](=O)[O-])c1,11.2
13,Cc1ccc(S(=O)(=O)N2CCC(C(=O)NCC3CCCCC3)CC2)cc1,9.39
14,COc1ccc(-n2ccc(=O)c(C(=O)Nc3ccc(S(=O)(=O)Nc4nccs4)cc3)n2)cc1,4.7
15,O=[N+]([O-])c1ccc2ccn(C3OCC(O)C(O)C3O)c2c1 (centres unmarked),11.7
16,Cc1ccccc1C(=O)N1CCN(c2ccc(NC(=O)c3cccnc3)cc2)CC1,2.32
17,CCOC(=O)O[C@]1(C(=O)OCCl)CC[C@H]2[C@@H]3CCC4=CC(=O)C=C[C@]4(C)[C@H]3[C@@H](O)C[C@@]21C,10.9
18,O=C(COc1ccc(Cl)cc1[N+](=O)[O-])N1CCCCCC1,12.5
19,COc1ccc(CN2CCN(C(C)C(=O)N3CCc4ccccc43)CC2)cc1OC (centres unmarked),-52.3
20,COc1ccccc1NC(=O)CCc1nnc2ccc(N3CCN(C)CC3)nn12,16.1
21,c1ccc(N=Nc2ccc3cccccc2-3)cc1,12
22,CSc1nsc(SCC(=O)N2CCN(c3ccccc3)CC2)n1,6.28

row,SMILES,"hERG current change (%, negative = inhibition) at 1uM [%]"
1,CN(C)C(=O)c1ccc(Nc2nnc(-c3ccc(O)cc3)c3ccccc23)cc1,3.02
2,CCN(CC)c1nc2cc(C)ccc2cc1/C=C(\C#N)C(N)=O,1.71
3,CSc1ccccc1NC(=O)COc1ccc(S(=O)(=O)N2CCCC2)cc1,3.75
4,CCOc1ccc(CN(C)CC(=O)NCc2ccccc2Cl)cc1,-73.6
5,CCN(CC(=O)Nc1ccc(C(=O)Nc2ccc(OC)cc2)cc1)Cc1nc2ccccc2c(=O)[nH]1,16.9
6,O=C(NCc1cnc2ccccn12)C1CCC(=O)N(Cc2cccc(F)c2)C1 (centres unmarked),18
7,CC(C)CC(=O)N1CCN(Cc2ccccc2[N+](=O)[O-])CC1.O=C(O)C(=O)O,17.5
8,COc1cccc(CNC(=O)c2cc(COc3c(F)cccc3F)on2)c1,10.4
9,CCOc1cc(/C=C2/C(=O)ON=C2C)ccc1OCc1ccc(F)cc1,18.2
10,Cc1[nH]nc2ncc(C(=O)c3cc(Cl)cc(Cl)c3O)cc12,10.1
11,C/C(=N\N=C(N)N)c1cccc([N+](=O)[O-])c1,5.97
12,O=C(NCCC1=CCCCC1)c1c(O)nc2ccccn2c1=O,18.8
13,CCOc1ccc(C2=C(C=Nc3c(C)n(C)n(-c4ccccc4)c3=O)C(c3ccc(F)cc3)c3ccccc3O2)cc1 (centres unmarked),7.07
14,CCCCn1c(N)c(N(CCOC)C(=O)c2ccc(-c3ccccc3)cc2)c(=O)[nH]c1=O,14.3
15,CCOC(=O)C1CCN(C(=O)C(CCSC)NC(=O)c2ccccc2OC)CC1 (centres unmarked),4.72
16,COc1ccc(N(Cc2cc3cc(C)ccc3[nH]c2=O)C(C)=O)cc1,12.1
17,Cc1cc(S(=O)(=O)NCCc2ccncc2)cc(C)c1F,8.58
18,COC(=O)c1c(C(=O)OC)c(-c2cccc(C)c2)n2c1CS(=O)(=O)C2,-13.9
19,CC(=O)Nc1ccc(SCc2c(C)noc2C)cc1,14.3
20,O=C(Cn1cnc2ccc(Cl)cc2c1=O)c1cccs1,10.2
21,CCNC(=O)C(=O)NCC1OCCCN1S(=O)(=O)c1ccc(F)cc1C (centres unmarked),7.65
22,C=CCn1c(SCC(=O)c2c(N)n(CCC)c(=O)n(C)c2=O)nc2sc(CC)cc2c1=O,8.51
